Laboratory results published in the supplement of paper PMC10441789.
This is one part of the list. Antibody binding of pooled human sera (four to six donors per pool; dilution not stated) to peptides of the Trypanosoma cruzi antigen TSSA on microarrays. Quantile-normalised fluorescence in arbitrary units, mean of duplicate arrays; higher = more binding. No active / inactive call. The uninfected pools are read here as the healthy donors of the same country. The strongest signals lie near the top of the scale (about 60,000).

These sequences were tested on pooled sera of chronic Chagas disease patients, Argentina (assay: antibody binding signal (normalised fluorescence) (arbitrary fluorescence units); higher = stronger serum antibody binding to peptide).
Procedure: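 Microarray of 15-residue peptides over residues 30-55 of Trypanosoma cruzi TSSAII, each with 1 to 10 substitutions at naturally variable positions, probed with one serum pool per country.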

| Sequence | antibody binding signal |
| --- | --- |
| ENKTATGEAPSQPGA | 18600 |
| STPPSGTENKAATGE | 47400 |
| TENKAATGETPSQSG | 26700 |
| TEKKTAAGGAPSPPG | 685 |
| KKAAAGGAPSPPGAS | 167 |
| GTDNKAATGGTPSQP | 419 |
| GTDKKPATGGTPSQP | 585 |
| TPPSGTDKKTAAGET | 15400 |
| KKPATGETPSPPGAS | 9900 |
| SGKDKKAATGGTPSQ | 708 |
| TPPSGTEKKPATGET | 46600 |
| GKDNKTATGGAPSPS | 1700 |
| KDKKPATGETPSQSG | 23700 |
| GTEKKAATGGAPSQP | 1330 |
| TENKTAAGEAPSQSG | 17000 |
| SGTEKKTAAGGTPSQ | 1420 |
| EKKAAAGGTPSQPGA | 432 |
| TSSTPPSGKENKTAT | 17500 |
| PSGKDNKPAAGGTPS | 3250 |
| PSGTENKAAAGETPS | 46800 |

| Sequence | antibody binding signal |
| --- | --- |
| SGTENKPAAGETPSP | 44900 |
| TENKTATGETPSPSG | 20500 |
| SGTDKKAATGGAPSQ | 1850 |
| GKEKKAAAGGTPSPP | 663 |
| PPSGTENKAAAGEAP | 47500 |
| TSSTPPSGKENKPAA | 20600 |
| GKENKPATGETPSPP | 35700 |
| GKDNKTAAGGAPSQP | 375 |
| KKAATGETPSQSGAS | 932 |
| KDKKPATGETPSPSG | 25100 |
| GTENKAATGGAPSPP | 37700 |
| PSGKDNKTATGETPS | 1760 |
| KDNKPAAGETPSQSG | 379 |
| TPPSGTEKKPATGGA | 43700 |
| STPPSGTDNKPATGE | 42600 |
| GKDNKPATGETPSQS | 36900 |
| GTEKKPATGGTPSQS | 1150 |
| GKDNKTAAGGAPSPS | 441 |
| PSGKEKKTAAGGTPS | 4560 |
| KKTAAGEAPSQPGAS | 1700 |
